# Reference: PubChem BioAssay AID1508642 (National Center for Advancing Translational Sciences (NCATS), 2021)
# Hit rate of the full screen: of about 43,000 compounds, about 200 (0.47%) were called active. Not shown: some 12% with an inconclusive outcome. Calls follow the shape of the dose curve; as a rule, active = well fitted cell-killing curve with a large enough effect; inconclusive = small, poorly fitted or top-dose-only effect, or effect the other way; inactive = flat fitted curve, though single readings scatter. This is one part of the list.
# Assay: Cell viability qHTS assay in S16 Pmp22-F2sN cells; also: nearly all actives have a fitted effect of over 65% in size
# Details: S16 Pmp22-F2sN Schwann cells viability, CellTiter-Glo, 24 h; series mostly up to 57.5 µM; activity change, negative = cytotoxicity: at the top concentration
# Outline: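 Used to flag compounds lowering reporter output through toxicity, this quantitative HTS measures ATP-based CellTiter-Glo luminescence in S16 Pmp22-F2sN Schwann cells after 24 h compound exposure at 37C.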
# % is scaled to controls: 0 for no effect and ±100 for the full control effect.
row,SMILES,"activity change, negative = cytotoxicity"
1,CCOc1ccc(NC(=O)CN2CCN(CC(=O)Nc3ccc(F)cc3F)CC2)cc1,inactive: 0.37%
2,CCOc1ccccc1C(=O)Nc1ccc(S(=O)(=O)N(Cc2ccccc2)c2ccccc2)cc1,inactive: 14.8%
3,Cc1ccccc1-c1noc(-c2nnn(-c3ccccc3C)c2N)n1,inactive: -1.51%
4,Cc1ccc(-n2cc(C(=O)OCc3ccc(F)c(F)c3)c3ccccc3c2=O)cc1,inactive: 0.479%
5,Cc1ccc(-n2ncc(C(=O)NC3CCN(Cc4ccccc4)CC3)c2C2CCN(C(=O)OC(C)(C)C)CC2)cc1C,inactive: -28.4%
6,CCCS(=O)(=O)Nc1cc(-c2cn3ccc(C)cc3n2)ccc1C,inactive: 7.86%
7,COc1ccc(CCCc2nnc(SCC(=O)Nc3ccc(C)cc3)o2)cc1C,inactive: -1.73%
8,Cc1ccc(C)c(CN2C(=O)c3ccccc3S(=O)c3ccc(C(=O)N4CCOCC4)cc32)c1 (centres undefined),inactive: 9.66%
9,COc1ccc(C(=O)Nc2nc3n(n2)C(c2ccc(Cl)cc2)C=C(c2ccccc2)N3)cc1OC (centres undefined),inactive: -22.8%
10,Cc1ccc(Nc2sc(C(=O)c3ccc(F)cc3)c(N)c2S(=O)(=O)c2ccc(C)cc2)cc1,inactive: 5.61%
11,COc1ccccc1N1CCN(S(=O)(=O)c2c(C)sc3ncn(CC(=O)Nc4ccc(C)cc4Br)c(=O)c23)CC1,inactive: -1.76%
12,CCC(C(=O)NCCc1cc(OC)ccc1OC)n1nc(C)c2c(C)n(-c3ccccc3)nc2c1=O (centres undefined),inactive: -9.35%
13,CCOc1ccccc1NC(=O)Cn1c(=O)n(Cc2cccs2)c(=O)c2cccnc21,inactive: 12.7%
14,Fc1ccc(-c2nn(-c3ccc(Cl)cc3)c3c2cnc2ccc(F)cc23)cc1,inactive: 12.6%
15,COc1ccc(-n2c(=O)c3ccccc3n(Cc3ccccc3Cl)c2=O)cc1,inactive: 0.399%
16,CC(Sc1nc(=O)cc(N)n1CCc1ccccc1)C(=O)Nc1cccc(Cl)c1 (centres undefined),inactive: -8.65%
17,CCc1ccc(C(=O)c2cn(CC(=O)Nc3ccc4c(c3)OCO4)c3ccc(F)cc3c2=O)cc1,inactive: 2%
18,Cn1c(=O)oc2cc(S(=O)(=O)NC(Cc3ccccc3)C(=O)NCc3ccccc3Cl)ccc21 (centres undefined),inactive: 1.6%
19,COc1ccc(-c2n[nH]c3c2cnc2cc(OC)c(OC)cc23)cc1,inactive: 2.87%
20,CCN(CC)S(=O)(=O)c1ccc2c(c1)c(=O)c(C(=O)N1CCN(c3cccc(Cl)c3)CC1)cn2C,inactive: -1.56%
21,Cc1ccc(CSC2=Nc3ccccc3C3=NC(CC(=O)NCc4ccc5c(c4)OCO5)C(=O)N23)cc1 (centres undefined),inactive: -19.6%
22,COc1cc(OC)c(NC(=O)c2ccc3c(c2)N(Cc2ccc(C)cc2)CCS3)cc1Cl,inactive: 2.03%
23,Cc1cccc(C2N=C(N)Nc3nc4ccccc4n32)c1 (centres undefined),inactive: -19.7%
24,COCCCNC(=O)CCn1c(=O)c2ccccc2n(CC(=O)Nc2cc(Cl)ccc2OC)c1=O,inactive: 9.64%

row,SMILES,"activity change, negative = cytotoxicity"
1,O=C(NCCc1ccc(Cl)cc1)c1ccc2c(c1)N(Cc1ccc(Cl)cc1)C(=O)CS2,inactive: -2.61%
2,Cc1cc(C)c(NC(=O)Cn2nnc(S(=O)(=O)c3ccc(C)c(C)c3)c2N)c(C)c1,inactive: 2.61%
3,CC(C)c1ccc(NC(=O)N2c3ccccc3Sc3ccccc32)cc1,inactive: -9.88%
4,CN1C(C(=O)Nc2cccc(O)c2)=CC(c2ccco2)=NS1(=O)=O,inactive: -3.74%
5,Cc1cccc(N2CCn3c2nc2c3c(=O)n(C/C=C/c3ccccc3)c(=O)n2C)c1,inactive: -0.664%
6,CCCCN(CC)c1nc(-c2ccccc2F)nc2ccccc12,inactive: 0.534%
7,COc1ccc(S(=O)(=O)N2CCN(c3cccc(C)c3C)CC2)c2ccccc12,inactive: 4.5%
8,O=S1(=O)c2ccccc2N(Cc2ccc(Cl)cc2)c2ccccc21,inactive: -8.55%
9,COc1ccc2c(c1)c(=O)c(C(=O)c1ccc(F)cc1)cn2CC(=O)Nc1ccc2c(c1)OCO2,inactive: 11.9%
10,CCc1nnc(NC(=O)c2nc(SCc3ccccc3F)ncc2Cl)s1,inactive: 5.73%
11,CCCCOc1ccc(Cn2c(=O)oc3ccc(C)cc32)cc1OC,inactive: -18.3%
12,CC(C)CCNC(=O)Cn1c(-c2cccs2)cc2cc(F)ccc21,inactive: 0.307%
13,Cc1cc(Br)ccc1NC(=O)c1sc2nc3n(c(=O)c2c1C)CCCC3,inactive: 3.75%
14,Cc1ccc(NC(=O)C2CCN(c3nnc(C)c4c(C)n(-c5ccccc5)nc34)CC2)c(Cl)c1,inactive: 10.2%
15,COc1ccc(Cl)cc1C(=O)Nc1nnc2n1CCS2,inactive: 2.85%
16,Cc1ccc(S(=O)(=O)N(CC(=O)NCCSc2ccc(Cl)cc2)c2ccccc2C)cc1,inactive: -18.9%
17,O=C(CCCCCn1c(=O)c2sccc2n(Cc2ccc(Cl)cc2)c1=O)NCc1ccc2c(c1)OCO2,inactive: -16.8%
18,Cc1ccc2oc(-c3ccc(C)c(NC(=O)/C=C/c4ccc(Cl)cc4)c3)nc2c1,inactive: 1.33%
19,COc1ccc(Nc2c(-c3ccc(C)o3)nc3cc(C)ccn23)cc1,inactive: -26.3%
20,Cc1cc(C)cc(NC(=O)Cn2cc(C(=O)c3cccs3)c3ccccc32)c1,inactive: 1.95%
21,CC(=O)N1CCC(N(Cc2ccco2)C(=O)Nc2ccc(C)c(Cl)c2)CC1,inactive: -4.48%
22,Cc1ccc2[nH]c3c(=O)n(CC(=O)N(CCN(C)C)Cc4ccccc4)ncc3c2c1,inactive: -17.3%
23,CCOc1ccc(N2CC(NC(=O)C3CCCCC3)CC2=O)cc1 (centres undefined),inactive: 1.17%
24,COc1cc(NC(=O)c2nc3nc(C)cc(C(F)F)n3n2)c(OC)cc1Cl,inactive: 1.86%

row,SMILES,"activity change, negative = cytotoxicity"
1,Cc1ccc(CNC(=O)c2ccc(CN3CC(=O)N4CCCCC4C3=O)cc2)cc1 (centres undefined),inactive: 19%
2,CCOC(=O)CNC(=O)N1[C@H](c2cccs2)[C@@H](C)C(=O)[C@@H](C)[C@@H]1c1cccs1,inactive: -16.8%
3,Cc1cccc(C)c1-n1ncc(C(=O)NC2CCCC2)c1C1CCN(C(=O)OC(C)(C)C)CC1,inactive: 3.72%
4,CCOc1ccc(NC(=O)NCc2cccn2Cc2ccccc2)cc1,inactive: 4.11%
5,O=C(c1ccc2c(c1)CCN2S(=O)(=O)c1ccc(Cl)cc1)N1CCN(c2ccc(F)cc2)CC1,inactive: -25%
6,Cc1nnc(N2C(=O)c3oc4ccccc4c(=O)c3C2c2ccc(Cl)cc2)s1 (centres undefined),inactive: 5.67%
7,Cc1c(C(=O)OC2CCCCCC2)[nH]c2c1C(=O)CC(c1ccc(Cl)cc1)C2 (centres undefined),inactive: -0.493%
8,Cc1ccc2c(c1)C(=O)OC(C(=O)Nc1ncc(Cc3ccc(Cl)cc3)s1)C2 (centres undefined),inactive: 2.38%
9,O=C(COc1ccc(Cl)cc1Cl)Nc1cccc2cccnc12,inactive: 3.89%
10,COc1ccc(S(=O)(=O)NCC(c2ccc(N(C)C)cc2)N2CCc3ccccc32)cc1OC (centres undefined),inactive: -13.1%
11,COc1ccccc1N1CCN(C(=O)c2cnn(-c3ccc(F)cc3F)c2C2CCNCC2)CC1,inactive: 0.531%
12,COc1cccc(C(=O)Nc2ccc3oc(-c4cccc5c(Br)cccc45)nc3c2)c1,inactive: 29.2%
13,Cc1ccc(Nc2nnc(-c3ccc(C)c(S(N)(=O)=O)c3)c3ccccc23)cc1,inactive: -19.9%
14,CN(C)S(=O)(=O)c1ccc(C(=O)NCCSc2c(-c3ccc(Cl)cc3)[nH]c3ccccc23)cc1,inactive: -5.15%
15,Cc1cccc(OCC(=O)Nc2cccc3cccnc23)c1C,inactive: 8.7%
16,COc1ccc(N2CCN(C(=O)CCc3c(C)nc4cc(-c5ccc(OC)cc5OC)nn4c3C)CC2)cc1,inactive: -2.66%
17,CCOC(=O)c1c(NC(=O)c2ccccc2OCC)sc2c1CCC(CC)C2 (centres undefined),inactive: 1.52%
18,COc1ccc(Cc2nc3ccc(C(=O)NCc4ccccc4Cl)cc3o2)cc1,inactive: 2.75%
19,Cc1ccc(NC(=O)C2CC(=O)N(c3ccc(OC(C)C)cc3)C2)cc1 (centres undefined),inactive: 7.04%
20,CCOC(=O)c1c(C)c(-c2ccccc2)n(CC(=O)NC(CC)Cc2ccccc2)c1C (centres undefined),inactive: 8.91%
21,CCN(CC)c1ccc(NC(=O)C2CCN(S(=O)(=O)c3cnc[nH]3)CC2)c(C)c1,inactive: -1.18%
22,CCOc1ccc(CC(=O)NCC(c2cccs2)S(=O)(=O)c2ccc(F)c(C)c2)cc1 (centres undefined),inactive: 13.7%
23,O=C(COc1ccc(Cl)cc1)Nc1ccccc1OCc1cc(=O)n2ccccc2n1,inactive: 2.59%
24,CCc1ccc(NC(=O)C(CC)n2c(=O)c(-c3ccccc3NC(C)=O)nc3ccccc32)cc1 (centres undefined),inactive: 0.862%

row,SMILES,"activity change, negative = cytotoxicity"
1,CN(Cc1ccccc1)C(=O)CSc1nc(-c2ccc(F)cc2)cc(C(F)(F)F)n1,inactive: 0.413%
2,COCCOC(=O)c1c(-c2ccccc2)c(-c2ccccc2)nn(C)c1=O,inactive: 3.18%
3,CCOc1ccc(CC(=O)Nc2c(C(=O)c3ccccc3)oc3ccc(OC)cc23)cc1OCC,inactive: 8.91%
4,CCc1ccccc1NC(=O)Cn1c(=O)n(Cc2ccc(OC)cc2)c(=O)c2oc3ccccc3c21,inactive: 1.8%
5,CCCC(CCC)C(=O)NC1CC(=O)N(c2ccc3c(c2)OCCO3)C1 (centres undefined),inactive: 22.1%
6,Cc1cc(NS(=O)(=O)c2ccc3oc(=O)c4ncn(C)c4c3c2)ccc1Br,inactive: 14.6%
7,Cc1ccc(NC(=O)Cn2c(=O)n(Cc3nc(C)no3)c(=O)c3cc4c(cc32)OCO4)cc1,inactive: 1.7%
8,CC(C)c1ccc(N2C(=O)CSC23C(=O)N(Cc2ccccc2)c2ccccc23)cc1 (centres undefined),inactive: 3.25%
9,COc1cccc(CNC(=O)C(C)n2c(=O)cc(-c3ccccc3)c3c(C)nn(C)c32)c1 (centres undefined),inactive: 3.21%
10,O=C(/C=C/c1ccccc1Cl)Nc1nc(-c2cccs2)ns1,inactive: -17.6%
11,COc1ccc(NC(=O)N2CCN(S(=O)(=O)c3ccc4c(ccn4C)c3)CC2)c(OC)c1,inactive: 1.72%
12,Cc1nc2c(C(=O)NC(C)c3ccccc3)cnn2c(C)c1Cc1ccccc1 (centres undefined),inactive: -21.8%
13,CCC(=O)Nc1nnc(S(=O)(=O)N2CCc3ccccc32)s1,inactive: -5.5%
14,O=C(NCCc1csc(-c2ccc(F)cc2)n1)c1ccc(Br)o1,inactive: 6.78%
15,Cc1ccccc1CN1CCN(CC(=O)NCc2ccccc2Cl)C1=O,inactive: -2.31%
16,Cc1nc2cc(-c3ccccc3)nn2c(C)c1CCC(=O)N1CCN(c2ccccc2)CC1,inactive: 11.8%
17,CCSc1ncc(Cl)c(C(=O)Nc2c(C(=O)c3ccccc3)oc3ccccc23)n1,inactive: 0.203%
18,COc1ccc2oc(-c3ccc(C)c(NC(=O)Cc4ccc(Cl)cc4)c3)nc2c1,inactive: -0.785%
19,O=C(CCNS(=O)(=O)c1ccc2c(c1)CCN2C(=O)C1CC1)Nc1ccc(F)cc1F,inactive: -17.3%
20,COc1ccc(N2CC(NC(=O)c3ccc(S(=O)(=O)N4CCCCC4)cc3)CC2=O)cc1OC (centres undefined),inactive: 3.74%
21,Cc1cccc(NC(=O)c2cc(S(=O)(=O)N3CCC4(CC3)OCCO4)ccc2F)c1,inactive: 1.08%
22,COc1cc(OC)cc(-c2nc3nc(C)c(CCC(=O)Nc4cc(F)ccc4F)c(C)n3n2)c1,inactive: 0.112%
